Measurements taken from the RNAGym collection of RNA variant scans (doi:10.7554/elife.90254).
Read counts are not given, so values of variants with three or more changes are uncertain.

B1: LINE1-mini (parent)
chain: GGCAGAGCUCAACACAGCGUGGCAAAGUGGCUGUGGCUAGACUGCC

Variants of: B1
Assay: self-cleavage, relative activity (ratio to wild type); higher = more cleavage; in vitro, sequencing; the parent is a self-cleaving ribozyme

Variant	self-cleavage
GGCAGAGCUCAACACAGGGUUCCGAAGUGCCUGUGACUAGACUGCC	0.11
GGCAGAGCUCAUGACAGCGUGGCAAAGUGGCUUUGGCUAGGCUGCC	0.05
GGCACAGCUCAACAUAGCGUGGCAAAGUGGCUGUAGCUAGACUGCC	0.01
GGGAGAACUCAACACUGCGUGGCAAAGUGGCUGUGGCUAGACUACC	0.06
GGCAGCGGUCAACACAGGGUGGCAAAGUGGCUGUGGCUAGACUGCC	0.02
GGUAGAGCUCAACACAGCUUGGAAAAGUGGCUGUGGCUAGACUGCC	0.1
GGCAGAGCUCAACACAGCGUGGCAAAGUGGCUGAAGCUCGACUGCC	0.01
GGCAGAGCUCACCACAGCGUGGCAAAAUGGCUGUGUCUAGACUGCC	0.09
GGCGGAGAUCACCACAGCGGGGCAAAGUGGCUGUGGCUAGACUGCC	0.04
GGCAGAGCCCAAGACAGCGUGGCAAAGUGGCUGAGGCUUGACUGCC	0.04
GGCAGAGCUCAAGACAGCGGGGCAAAGUGGCUGUGGCUAGACUGCA	0.08
GGCAGAGCUUAACCCAGUGUGGCAAAGUGGCUUUGGCUAGACUGCC	0.01
GGCAGAGCUCAACACAGCUUGGCAAAGUGGCUGUGGCUAGCGUGCC	0.04
GGCAGAGCUAAAAACGGCGUGGCAAAGUGGCUGUGGCUAGACUUCC	0
GGCAGAGCAUAUCACAGCCUGGCAAAGUGGCUGUGGCUAGACUGCC	0.07
GGCUGCGAUCUCGACAGCGUGGCAAAGUGGCUGUGAUUCGACUGCC	0
GGCAGGGCUCAAUACAGCGUGGCAACGUGGCUGUGUCUAGACUGAC	0.89
GGCAGAGUUCAACUCAGCGUGGCAAAGUGGCCGUGUCUAGACUGCA	0.03
GGCACAGCUCAACACAGCGUGGCAAAGUGCCUGUCGCUGGACUGCC	0.01

Variant	self-cleavage
GGCGGAUCCCAACACAGCUUGACAAAGUGGCUGUGGCUAGACUGCC	0.02
GGCAGCGCUCGACACAGCCUUGCAAAGUGGGUGUGGCUAGACUGCC	0.02
CGCAGAGAUAACCACACCGUGGCCAAGUGCCUGAGGCUAGACUGCC	0
GGCAGCGCUCAACACAGCGUGGCAUAGUGGCUGUGGCUUGACUGCC	0.3
GGUAGAGAUCAACACAGCGUUGCAAAAUGGCUGUGGCUGGACUGCC	0.03
GGCAGAGGUCAACACAGCGUGGCGAAGUGGCUGUGGCUAGACCGCC	0.01
GACAGAGCUCAACGAAGAGUGGCAAAGUGGCUGAGGAUAGACUGCC	0.06
GGCAGAGCUCAAUUCAGCGUGGCAAAAUGGCUGUGGCUAGACUGCC	0.06
GGCAGAGCGCAACACAGCGUGGCAAAGUGGCUGUGUCUAGACUGCA	0.1
GGCAGAACUCAACACGGCGUGGCAAAGUGGCGUUGGCUAGAGUGCC	0
GGGAGAGCUCAACACAGUGUGGCAAAGUGGAUGUGGCUAGACUGCC	0.16
UGGAGAGCUCAACACAGCGUGGCAAAGUGGCUGUGGUUAGCCUGUC	0.07
GGCAGAGCUCUACACAGCGGCGCAAAGUAGCUGUGGCUAGCCUGCC	0
CGCAGUGCACAACACAGCGUGGCGAAGUGGCUGUGGAUCGACUGCC	0.01
GGCAGAGCUUAACACAGCGUGUCAAAGUGACUGUGGCUAGACUGCC	0.41
GGCAGAGGACAACACAGCGUGGCAAACUGGCUGUGGCUAGACUGCC	0.04
GGCAGAGCUCAACACAGCGUGGCAACGUGGCUGAGGCUAGCCUGCC	0.63
CGCAAAGAUCAACACAGCGUGGCAAAGCGGGUGUGUCUAGACUGCC	0.01
GGCAGAGCUCAACACAGCCUGGUAAAGUGGCUGUGGCUAUACUGCC	0.29

Variant	self-cleavage
GGCAGAGCUCAACACAGCGUAGCAAAGUUGUUGUGGUUAGACUGCC	0.03
GGCAGAUCUAAACACAGCGUGGCAAAGUGGCAGUGGCUAGAGUGCC	0.02
GGCAGAGCUCAACACAGCGUGGCAAAAUGGCUGUGCCUAGAGUGGC	0.07
GACAGAGCUCAACACACCGUGGCAAGGUGGCUGUGGCUAGAUUGAC	0.21
GGAAGAGCUCAAAACAGCGUGGCAAAGUGGCUUUGGAUGGACUGCC	0.06
GGGAGACCUCAACACAGCGUGGCAAAGUGGCUGUGGCUAGACAGCC	0.08
GGCAAAGCUCAACACUGCGUGGCAAACUGGCUGUGGAUAGACUGCC	0.1
GGCAGAGCUCGACACAGCGUCGCAAAGUGGCUGUGGCUAGACCGCC	0.01
GGCAGAGGUCACCAUAGCGCGGCAAAGUGGCUGUGGUUAGACUGCU	0
UGCAGAGCUCAACACAGCGUGGCAAAGUGGCUGGUGCUAGACUGCC	0.03
GGCAGAGCUCAACUCAGCCUGGCAAAGUCGCUGUGGCUAGACUGCC	0.13
GGCAGAGCUCGACACAGCGUGGCAAAGUGGCUCUGGCUAGGCUGCC	0.03
GGCAGAGCUCGACACAGCGUGGCCAAGUCGCUGUGGCUAGACUGCC	0.01
GGCAGAGCUCAACACAGAGUGGCAAAGUGGCUGUAGCUAUACUGCC	0.04
GGCAGAGCUCAACACAGCGUGGCAAAGUGGCUGGGGCUAGGCUCCC	0.01
GGCGGAGCUCAACACAGCCUGACAAAGUGGCUGUGGCUACAGUGCC	0
AGCAGAGCUCAACACAGCGUGGCAAAGUGGCUGAGGCUAGAUUGCU	0.04
GGCAGAGCGCAACACAGUGUGACGAAGUGGCUUUCGCUAGACUGCC	0.03
